Test results: PubChem BioAssay AID463173 (ICCB-Longwood Screening Facility, Harvard Medical School, 2010)
About 4,300 (8.3%) of roughly 52,000 compounds were called active. Rule as the data show it: active = survival mostly below about 52% (no sharp cut-off); inactive = mostly above about 56%. The list shows a part of the results.

These compounds were tested on DeltatarO mutant (assay: growth inhibition of S. aureus wild type versus tarO mutant, primary screen, teichoic acid synthesis inhibitors, RN4220, OD600 (AID 463173)). Details: OD600, 18 h, stronger effect = lower value, screened at 18.75 µg/mL (by protocol).

| Compound | survival |
| --- | --- |
| COc1cccc(NC(=O)C2CCCN(S(=O)(=O)c3c(C)[nH]c(=O)[nH]c3=O)C2)c1 (configuration not stated) | inactive: 139% |
| Cc1cc(C)cc(NC(=O)CCC(=O)N2Cc3ccccc3Oc3ncccc32)c1 | inactive: 95% |
| O=C(Nc1ccc(Br)c2cccnc12)c1cccc2ccccc12 | active: 29% |
| Cc1ccc(CCNC(=O)c2cc3sccc3n2Cc2ccc(C)cc2)cc1 | inactive: 80% |
| CCCc1cnc2c(c1SCC(=O)N(C)c1ccccc1)c(=O)n(C)c(=O)n2C | inactive: 118% |
| Cc1c(Cl)ccc2sc(NC(=O)c3ccc(S(=O)(=O)N4CCCc5ccccc54)cc3)nc12 | inactive: 55% |
| COc1cccc(CNC(=O)C2CCCN(S(=O)(=O)c3ccc4c(ccn4C)c3)C2)c1 (configuration not stated) | inactive: 124% |
| Cc1nc2c(-c3ccccc3)c(C)nn2c(C)c1CCC(=O)NC(C)c1ccccc1 (configuration not stated) | inactive: 93% |
| COc1ccc(NC(=O)CC2C(=O)N(c3ccc(F)cc3)C(=O)N2Cc2cccnc2)cc1 (configuration not stated) | inactive: 99% |
| CCCN(C(=O)c1cc2c(s1)-c1ccccc1OC2)c1ccccc1F | active: -4% |
| CCOC(=O)c1cccc(NC(=O)c2oc3c(c2C)-c2[nH]ncc2CC3)c1 | inactive: 69% |
| CCC(C(=O)Nc1ccc(C(=O)OC)cc1)n1c(=O)c(-c2ccccc2NC(C)=O)nc2ccccc21 (configuration not stated) | inactive: 94% |
| CCc1ccccc1NS(=O)(=O)c1ccc2[nH]cc(C(=O)N3CCCCC3)c(=O)c2c1 | inactive: 121% |
| COc1cc(CN(C(=O)Nc2ccccc2)c2ccccn2)cc(OC)c1OC | inactive: 66% |
| Cc1ccc(Oc2c(C(F)(F)F)oc3c(CN4CCCCC4)c(O)ccc3c2=O)cc1 | inactive: 48% |
| CCOc1cccc2cc(-c3nc(-c4ccccc4C)no3)c(=O)oc12 | inactive: 76% |
| Cc1cc(F)ccc1NC(=O)CCS(=O)(=O)c1ccc2c(c1)NC(=O)CO2 | inactive: 88% |
| O=C(Nc1ccc(Cl)cc1)C1CCCN(S(=O)(=O)c2ccc3[nH]c(=O)ccc3c2)C1 (configuration not stated) | inactive: 88% |
| CCOC(=O)c1ccccc1NC(=O)CSc1cn(CC(=O)N2CCCCC2)c2ccccc12 | inactive: 79% |

| Compound | survival |
| --- | --- |
| OCC1OC(n2nnc3ccccc32)C(O)C(O)C1O (configuration not stated) | inactive: 96% |
| Cc1ccc(-n2nc(C(=O)N3CCN(c4cc(Cl)ccc4C)CC3)c(=O)n(C)c2=O)cc1 | inactive: 116% |
| CCc1ccc(C(=O)c2cn(CC(=O)Nc3ccc(F)c(F)c3)c3cc(OC)c(OC)cc3c2=O)cc1 | inactive: 121% |
| CCCCNC(=O)C1CCCN(Cc2nc(-c3ccc(Cl)cc3)oc2C)C1 (configuration not stated) | inactive: 77% |
| Cc1ccc(NC(=O)c2cc(S(=O)(=O)NCCC3=CCCCC3)ccc2F)cc1F | inactive: 115% |
| COc1ccc(Cl)cc1NC(=O)c1ccc2nc(Cc3ccccc3)oc2c1 | inactive: 101% |
| O=C(O)c1cccc(N=C2NC(=O)C(CO)(CO)S2)c1 | inactive: 89% |
| CC(C)CCNC(=O)c1cccc(Nc2nc3ccccc3n3nnnc23)c1 | active: 39% |
| CCCC(=O)Nc1cc(C)c(O)c(-c2nc3ncccc3o2)c1 | inactive: 91% |
| Cc1cc(OCC(=O)Nc2ccc(-c3nc4cc(Cl)ccc4o3)cc2)cc(C)c1Cl | inactive: 81% |
| CCc1ccc(C2CC(=O)c3c([nH]c(C(=O)OCC4CCCCC4)c3C)C2)cc1 (configuration not stated) | inactive: 89% |
| NS(=O)(=O)c1ccc(CCNC(=O)C2COc3ccccc3C2)cc1 (configuration not stated) | inactive: 71% |
| Cc1ccc(Cn2c(=O)c3cccnc3n(CC(=O)Nc3cccc(C(F)(F)F)c3)c2=O)cc1 | inactive: 64% |
| O=C(COc1ccccc1)NCc1ccc2c(c1)CCN2C(=O)c1ccc(F)cc1 | inactive: 94% |
| Cc1ccc(-n2ncc3c(N4CCCCCC4)ncnc32)cc1 | inactive: 100% |
| COc1cc(NC(=O)CCn2c(-c3ccccc3)cc(C(C)=O)c2C)cc(OC)c1 | inactive: 78% |
| CC1(C)CC(=O)C(C=NC(C)(C)C)=C(O)C1 | inactive: 84% |
| Cc1cc(C)c(NC(=O)CSc2ccnc(=O)[nH]2)c(C)c1 | inactive: 94% |
| O=C(NCCCN1CCCC1)c1ccccc1Cl | inactive: 86% |

| Compound | survival |
| --- | --- |
| COc1ccc(NC(=O)C(NS(=O)(=O)c2ccc3c(c2)CCCC(=O)N3)C(C)C)c(OC)c1 (configuration not stated) | inactive: 94% |
| Cc1cccc(CNC(=O)c2oc3c(c2C)-c2nn(Cc4ccccc4Cl)cc2CC3)c1 | inactive: 66% |
| CC1(NS(=O)(=O)c2ccccc2)CCS(=O)(=O)C1 (configuration not stated) | inactive: 98% |
| Cc1c(Cl)cccc1NC(=O)CSc1ncnc2c1sc1ccccc12 | inactive: 67% |
| Cc1ccc(NC(=O)Cc2c(C(=O)O)c(C)cn2C)cc1Cl | inactive: 94% |
| CC(C)OCCCn1c(SCc2ccccc2C#N)nc2c(sc3ccccc32)c1=O | inactive: 87% |
| NC(=O)CSc1nnc(COc2cccc3ccccc23)o1 | inactive: 89% |
| CCN(CC)CC(C)CNC(=O)CN1C(=O)CSc2ccc(S(=O)(=O)N3CCOCC3)cc21 (configuration not stated) | inactive: 119% |
| COc1cc(OC)c(NC(=O)CN2C(=O)CCn3nc(-c4cccn4C)cc32)cc1Cl | inactive: 90% |
| O=C(CN1C2=NCCN2c2ccccc21)c1ccco1 | inactive: 79% |
| CCc1cccc(NC(=O)Nc2ccc3c(c2)N(C)C(=O)c2ccccc2S3)c1 | active: 26% |
| c1ccc(-n2ncc3c(NC4CCCC4)ncnc32)cc1 | inactive: 117% |
| Cc1oc(C(C)(C)C)cc1C(=O)NC(Cc1ccccc1)C(=O)O (configuration not stated) | inactive: 56% |
| COc1ccc(NS(=O)(=O)c2cc3[nH]c(=O)c(=O)[nH]c3cc2C)cc1Cl | inactive: 94% |
| Cn1cc(S(=O)(=O)N2CCCCCC2)cc1C(=O)N1CCN(c2ccc(F)cc2)CC1 | inactive: 75% |
| CCC(=O)N1CCc2cc(Br)cc(S(=O)(=O)CCC(=O)NCCc3ccc(OC)c(OC)c3)c21 | inactive: 133% |
| CCOc1ccc(/C=C/c2nc(C#N)c(N3CCN(c4ccc(OC)cc4)CC3)o2)cc1 | inactive: 72% |
| O=C(CC1Sc2ccc(C(F)(F)F)cc2NC1=O)Nc1ccc(Cl)c(C(F)(F)F)c1 (configuration not stated) | active: 22% |
| CCOc1ccc(-c2cc(OC(=O)c3ccc(F)cc3)c3c(C)oc(C)c3c(=O)c2)cc1 | inactive: 69% |
